Laboratory results from patent US20240279318A1 (NANJING LEGEND BIOTECH, published 2024).

Target: T1, AFP158/HLA-A*02:01 complex (human)
T1 construct: biotinylated on the BSP by BirA for ELISA and panning; also called biotinylated AFP158/HLA-A*02:01 complex; Bio-AFP158
Assay: SPR, scFv-mIgG2aFc from supernatant captured, complex as analyte

| Binder | Kd | koff | kon |
| --- | --- | --- | --- |
| AS190259 VL1VH1g1 scFv-mIgG2aFc (Fc fusion, not shown: a dimerising Fc or GST; small tags and cut ends) scFv: SSELTQDPAVSVALGQTVRITCQGGGYYVNWYQQKPGQAPVLVIYLNTNRPSGIPDRFSGSSSGNTASLTITGAQAEDEADYYCQSADSSGNSAVFGGGTKLTVLGGGGSGGGGSGGGGS[left out - about 100 residues]AASGYGGSWWGDATLDAWGQGTLVTVSS | 560 nM | 0.41 s⁻¹ | 730000 M⁻¹ s⁻¹ |
| AS190259 VL2VH1g1 scFv-mIgG2aFc (Fc fusion, not shown: a dimerising Fc or GST; small tags and cut ends) scFv: SSELTQDPAVSVALGQTVTITCQGGGYYVNWYQQKPGQAPVLVIYLNTNRPSGIPDRFSGSSSGNTASLTITGAQAEDEAAYYCQSADSSGNSAVFGGGTKLTVLGGGGSGGGGSGGGGS[left out - about 100 residues]AASGYGGSWWGDATLDAWGQGTLVTVSS | 340 nM | 0.31 s⁻¹ | 900000 M⁻¹ s⁻¹ |
